Hit rate of the full screen: of about 220,000 compounds, about 5,700 (2.6%) were called active. The inconclusive results got no clear call from the source; some entries with a clear call stand among them for comparison. Calls come from the whole dose curve; as a rule, active = well fitted inhibition curve with a large enough effect; inconclusive = small, poorly fitted or top-dose-only effect; inactive = no such curve, though single readings can be large or run the other way. Potencies of inconclusive entries are doubtful fits and often do not repeat.
target: Lysine-specific demethylase 5B (Homo sapiens) (UniProt Q9UGL1); experiment: Primary screen for KDM5B Histone Demethylases FDH-coupled qHTS; conditions: FDH-coupled NADH fluorescence (FDH is formaldehyde dehydrogenase); series mostly up to 57.7 µM; note: nearly all actives have a fitted effect of over 70% in size
UniProt Q9UGL1, sequence (Q9UGL1 whole entry, looked up): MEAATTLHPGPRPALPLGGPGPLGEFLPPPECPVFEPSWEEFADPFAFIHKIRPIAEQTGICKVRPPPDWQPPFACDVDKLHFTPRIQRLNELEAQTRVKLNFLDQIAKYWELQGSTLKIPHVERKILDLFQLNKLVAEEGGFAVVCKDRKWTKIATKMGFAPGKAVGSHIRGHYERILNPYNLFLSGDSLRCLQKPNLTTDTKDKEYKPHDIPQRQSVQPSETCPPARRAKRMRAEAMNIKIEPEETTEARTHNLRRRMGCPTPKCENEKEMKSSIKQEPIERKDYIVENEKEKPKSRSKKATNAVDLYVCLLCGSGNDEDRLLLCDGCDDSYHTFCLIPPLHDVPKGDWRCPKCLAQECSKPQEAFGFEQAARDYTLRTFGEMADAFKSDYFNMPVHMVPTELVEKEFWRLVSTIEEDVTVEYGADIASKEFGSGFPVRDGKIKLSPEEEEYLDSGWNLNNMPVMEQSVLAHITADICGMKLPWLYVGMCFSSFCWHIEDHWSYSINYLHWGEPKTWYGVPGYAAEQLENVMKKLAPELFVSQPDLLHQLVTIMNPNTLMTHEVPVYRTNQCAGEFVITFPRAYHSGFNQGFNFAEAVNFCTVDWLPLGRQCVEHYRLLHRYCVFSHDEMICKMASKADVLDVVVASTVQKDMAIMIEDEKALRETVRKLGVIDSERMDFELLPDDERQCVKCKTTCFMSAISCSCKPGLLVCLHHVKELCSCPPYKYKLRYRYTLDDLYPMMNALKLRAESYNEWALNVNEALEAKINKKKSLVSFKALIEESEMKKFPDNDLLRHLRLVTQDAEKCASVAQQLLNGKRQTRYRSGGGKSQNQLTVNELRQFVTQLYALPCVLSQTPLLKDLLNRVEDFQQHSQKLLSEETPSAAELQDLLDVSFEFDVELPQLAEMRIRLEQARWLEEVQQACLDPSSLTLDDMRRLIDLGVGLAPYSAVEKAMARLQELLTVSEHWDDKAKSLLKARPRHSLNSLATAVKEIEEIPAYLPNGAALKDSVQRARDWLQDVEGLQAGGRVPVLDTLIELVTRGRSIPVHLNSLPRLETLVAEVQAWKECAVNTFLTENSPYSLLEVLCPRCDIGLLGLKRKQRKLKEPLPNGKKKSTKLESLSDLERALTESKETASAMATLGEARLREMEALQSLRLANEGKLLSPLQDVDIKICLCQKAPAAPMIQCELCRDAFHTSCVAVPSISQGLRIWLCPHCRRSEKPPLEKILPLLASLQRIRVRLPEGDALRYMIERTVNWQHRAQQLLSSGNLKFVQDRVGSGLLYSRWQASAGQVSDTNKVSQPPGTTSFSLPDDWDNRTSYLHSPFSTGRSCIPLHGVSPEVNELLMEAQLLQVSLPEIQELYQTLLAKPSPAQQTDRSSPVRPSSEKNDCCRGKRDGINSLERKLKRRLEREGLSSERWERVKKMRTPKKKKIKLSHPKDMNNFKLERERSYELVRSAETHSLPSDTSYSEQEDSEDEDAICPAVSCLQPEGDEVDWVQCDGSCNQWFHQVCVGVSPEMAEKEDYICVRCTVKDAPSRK
In short: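 Coupled FDH/NAD⁺ fluorescence readout. KDM5BΔAP 200 nM final; compound titration, 10 min RT preincubation; substrate mix 12.5 µM H3K4me3, 25 µM 2-OG, 50 µM Fe(II), 100 µM ascorbate, 0.25 mM NAD⁺, 0.25 U/mL FDH; ΔRFU over 30 min.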
Potency is the fitted concentration of half-maximal effect; tags give direction and shape of the fitted curve.

| SMILES | Potency |
| --- | --- |
| O=C1CCC2(CNC(=O)c3n[nH]c(=O)c4ccccc34)CCCC=C2N1 (centres undefined) | inactive |
| N#Cc1c2n(c(=O)n(CCOc3ccc(Cl)cc3)c1=O)CCC2 | inactive |
| CSc1cccc(NC(=O)Cn2c(N3CCc4ccccc4C3)nc(C)cc2=O)c1 | inconclusive: 11.2 µM [inhibitor, partial curve] |
| O=C(CCc1ncc(-c2c(F)cccc2F)o1)Nc1ccccn1 | inactive |
| COCCN1CCC(CNc2nccc(-c3ccccn3)n2)C1 (centres undefined) | active: 28.2 µM |
| CCc1ccc(C2=C(C)C(N3CCC(C(=O)NCc4ccc(C)o4)CC3)=NS2(=O)=O)cc1 | inconclusive: 15.8 µM [inhibitor, partial curve, poor fit] |
| COc1ccc(CC(=O)n2nc(C)c(S(=O)(=O)N3CCc4ccccc4C3)c2C)cc1 | inactive |
| Cc1nc(CN2CC3(CCN(C)C3)c3cc(C(=O)NCc4cccs4)ccc32)cs1 (centres undefined) | active: 35.5 µM |
| COc1ccc(S(=O)(=O)N2CCCC(Cc3noc(-c4ccncc4)n3)C2)cc1 (centres undefined) | inactive |
| COc1nccnc1NC1CCN(C(=O)c2cccc(C)c2)CC1 | active: 31.6 µM |
| CCN1CCOC(=O)C1CC(=O)Nc1cc(Cl)ccc1OC (centres undefined) | inconclusive: 1.12 µM [inhibitor, full curve, poor fit] |
| Cc1c(C)c2ccc(OC(C)C(=O)NCc3ccc(S(N)(=O)=O)cc3)cc2oc1=O (centres undefined) | inconclusive: 22.4 µM [inhibitor, partial curve, poor fit] |
| O=C(CCCn1c(=O)c2cccn2c2cccnc21)Nc1ccccc1Br | inconclusive: 14.1 µM [inhibitor, partial curve, poor fit] |
| O=C(c1ccco1)N1CCC(Nc2cccnc2)C1 (centres undefined) | inconclusive: 10 µM [inhibitor, partial curve, poor fit] |
| O=C([C@@H]1C[C@H](F)CN1C(=O)c1ccc(C(F)(F)F)cc1)N1CCCCC1 | inactive |
| O=C1NC(=NC2CCCC2)C2(CCN([S+](=O)([O-])c3cccs3)C2)N1c1cc(F)cc(F)c1 (centres undefined) | inconclusive: 3.55 µM [inhibitor, partial curve, poor fit] |
| COC(=O)c1cc(OC(=O)c2ccncc2)cc(C(=O)OC)c1 | inactive |
| Cc1ccccc1S(=O)(=O)Nc1ccccc1SCc1cc(=O)n2cc(Cl)ccc2n1 | inactive |
| O=C1CO[C@H](c2ccc(NS(=O)(=O)c3cccc(F)c3)cc2)[C@@H](CO)N1Cc1ccncc1 | inactive |
| Cc1ccccc1CNC(=O)c1ccc2c(c1)N(Cc1ccccc1)CCS2 | inconclusive: 31.6 µM [inhibitor, partial curve, poor fit] |
| CN(C)c1ncccc1CNC(=O)c1nccnc1N | inconclusive: 39.8 µM [inhibitor, single point] |
| Cc1ccc(O)c(CN2CC[C@@H](c3ccc4ccccc4c3)[C@H](O)C2)n1 | inactive |
| O=C(CCn1nc(-c2ccccc2)c2ccccc2c1=O)Nc1cccc2ccccc12 | inactive |

| SMILES | Potency |
| --- | --- |
| CSc1nc(Nc2ccccc2)c(C#N)c(-c2ccccc2)n1 | inactive |
| N#Cc1cc2c(=O)n3ccccc3nc2n(-c2nnc(SCc3ccccc3)s2)c1=O | inconclusive: 2.82 µM [inhibitor, partial curve, poor fit] |
| O=C(/C=C/c1ccco1)Nc1ccc2oc(-c3cccc(F)c3)nc2c1 | inconclusive: 31.6 µM [inhibitor, single point] |
| N#Cc1ccc(CN2CCn3c(nnc3C3CCCNC3)C2)cc1 (centres undefined) | active: 20 µM |
| O=C(c1ccc(Cl)cc1)N1CC2(CCCN2C2COC2)Cc2ccccc21 (centres undefined) | active: 89.1 µM |
| CC(C)C(=O)Nc1ccc(C2(C(=O)N(C)C)CCC2)cc1 | inactive |
| CC1(CNCc2ccccc2)COc2ccc(C(=O)N3CC(O)C3)cc2N1 (centres undefined) | inconclusive: 56.2 µM [inhibitor, single point] |
| CC(C)C1CN(c2ccc(C#N)cn2)CCC(=O)N1Cc1ccc(F)cc1 (centres undefined) | inconclusive: 28.2 µM [inhibitor, partial curve, poor fit] |
| O=C(Nc1cccc(F)c1)c1ccc2c(c1)CC(c1ccc(F)cc1)OC2=O (centres undefined) | inactive |
| O=C(NCc1ccccc1)c1cc2cc(F)ccc2[nH]1 | inconclusive: 31.6 µM [inhibitor, partial curve, poor fit] |
| Cc1sc2nc(N(CCO)CCO)n3nc(-c4ccccc4)nc3c2c1C | inconclusive: 35.5 µM [inhibitor, partial curve, poor fit] |
| COc1ccc(C(C)C)cc1CN1CCCC(CNC(C)=O)C1 (centres undefined) | inactive |
| Cc1cc(C)n(CCC(=O)N2CCCC(Cc3nc(C4CCOCC4)no3)C2)n1 (centres undefined) | inconclusive: 35.5 µM [inhibitor, partial curve, poor fit] |
| CCCCN1C(=O)C(CC(=O)N(C)C)Sc2ncccc21 (centres undefined) | inconclusive: 35.5 µM [inhibitor, single point] |
| O=[N+]([O-])c1cnc(Sc2ccncn2)s1 | inconclusive: 39.8 µM [inhibitor, single point] |
| Cc1ccc2[nH]c3c(=O)n(CC(=O)N(C)Cc4ccccc4)ncc3c2c1 | inconclusive: 25.1 µM [inhibitor, single point] |
| CC(=O)NN1C(=O)c2ccccc2NC1c1ccccn1 (centres undefined) | inconclusive: 22.4 µM [inhibitor, partial curve, poor fit] |
| O=C(Cc1ccc(F)cc1)NCCc1csc(-c2ccc(C(F)(F)F)cc2)n1 | inconclusive: 28.2 µM [inhibitor, partial curve, poor fit] |
| Cc1cc(-c2nc(C)c(-c3nnc(SCC(=O)Nc4cc(Cl)cc(Cl)c4)n3C)s2)no1 | inconclusive: 28.2 µM [inhibitor, partial curve, poor fit] |
| CCOC(=O)c1cnc(NCc2ccc(Cl)cc2)c2ccccc12 | inconclusive: 28.2 µM [inhibitor, partial curve, poor fit] |
| CC(=O)N1CCc2[nH]cnc2C12CCN(C(=O)Cn1nccc1C)CC2 | inactive |
| COc1ccc(-c2cc3c(=O)n(CCNC(=O)c4ccc(OC)nc4)ccn3n2)cc1 | active: 11.2 µM |
| CN(C)c1cccc(NC(=O)c2ccc3c(c2)NC(C)(COc2ccccc2)CO3)c1 (centres undefined) | active: 31.6 µM |

| SMILES | Potency |
| --- | --- |
| CCOCCn1c(SCC(=O)OC)nc2c1c(=O)[nH]c(=O)n2C | inactive |
| COc1ccc(Br)cc1CNC(=O)c1ccc(-n2c(C)cc3c2CCC(C)C3)cc1 (centres undefined) | inconclusive: 31.6 µM [inhibitor, partial curve, poor fit] |
| COc1ccccc1-c1cc(-c2cccnc2)nc2c(C)noc12 | inconclusive: 35.5 µM [inhibitor, partial curve, poor fit] |
| COCCCn1c(=N)c(C(=O)NC2CCCC2)cc2c(=O)n3cc(C)ccc3nc21 | inconclusive: 2.51 µM [inhibitor, partial curve, poor fit] |
| CCOc1ccccc1N1CCN(c2ncncc2-c2nc(-c3ccccc3)no2)CC1 | inconclusive: 39.8 µM [inhibitor, partial curve, poor fit] |
| CC(C)(C)N=C1NN=C(c2c[nH]c3ccccc23)CS1 | inactive |
| O=C(Cn1ccc2cc(Br)ccc21)Nc1nccs1 | inactive |
| COC(=O)c1c(C)[nH]c(C(=O)OCC(=O)Nc2ccc(Cl)cn2)c1C | inactive |
| CCOc1ccc(-c2nnc(SCC(=O)NCCc3ccccc3)nc2-c2ccc(OCC)c(OC)c2)cc1OC | inconclusive: 28.2 µM [inhibitor, partial curve, poor fit] |
| N#Cc1nc(-c2ccc(F)cc2)oc1NCc1ccco1 | inconclusive: 35.5 µM [inhibitor, partial curve, poor fit] |
| O=C(O)COc1ccccc1/C=N/NC(=O)c1cc(-c2ccccc2)nc2ccccc12 | inconclusive: 28.2 µM [inhibitor, partial curve, poor fit] |
| Cc1c(C(=O)NCc2ccccc2)oc2c1-c1[nH]ncc1CC2 | inconclusive: 15.8 µM [inhibitor, partial curve, poor fit] |
| COc1ccc(C(=O)Nc2ncc(-c3cccc(N(C)C)c3)c3c2OCC3)cc1 | inconclusive: 56.2 µM [inhibitor, single point] |
| Cc1ccc(C(=O)NC2CCN(c3cc(-c4ccc(F)cc4)[nH]n3)C2)cc1 (centres undefined) | inconclusive: 17.8 µM [inhibitor, partial curve, poor fit] |
| N#CCCN(C(=O)CSc1nnnn1-c1cccc(Cl)c1)c1ccc(F)cc1 | inconclusive: 25.1 µM [inhibitor, single point] |
| O=C(c1cc(-c2ccc(Cl)cc2Cl)c2cccn2n1)N1CCCC1 | inactive |
| O=C(Nc1ccc2c(c1)OCCO2)N1CCC(NS(=O)(=O)c2ccc(Cl)cc2)CC1 | inactive |
| O=[N+]([O-])c1cc(S(=O)(=O)Nc2cccc(Cl)c2)ccc1N/N=C/c1cccc(F)c1 | inactive |
| O=C(NCc1ccccc1)c1ccc2c(c1)OCCN(c1ccccc1)C2 | inconclusive: 31.6 µM [inhibitor, single point] |
| COc1cc(OC)c(OC)cc1CN1CCC(O)(CN2CCCC2)CC1 | inactive |
| CCc1ccccc1NC(=O)c1ccc2[nH]c(C)c(C)c2c1 | inconclusive: 6.31 µM [inhibitor, partial curve, poor fit] |
| CC(C)(C)c1ccc(OCC(=O)OCC(=O)Nc2sccc2C(N)=O)cc1 | inconclusive: 14.1 µM [inhibitor, partial curve, poor fit] |
| CCc1ccc(CNC(=O)c2sc3ncnc(N(C)C4CCCCC4)c3c2C)cc1 | inconclusive: 35.5 µM [inhibitor, partial curve, poor fit] |

Reference: PubChem BioAssay AID1347165 (National Center for Advancing Translational Sciences (NCATS), 2019)
